Source: PubChem BioAssay (Tox21)
Several values for one entry are separate records, joined by “and”; a condition that tells them apart may be missing. Identical values can stand only once. Inconclusive means that the source gave no clear call. Such entries were picked first, then a sample of the others. For some assays here: A potency beside an inconclusive call is a rough fit, not a confirmed value. Some compounds were tested as several samples or in several runs, with calls that do not always agree. Activity calls are given as the source filed them. Unless noted, calls come from the whole dose curve; as a rule, active = well fitted curve in the direction sought with a large enough effect in the repeat runs; inconclusive = weak or mixed curves; inactive = no such curve, though single readings can be large; an effect the other way counts as inactive or inconclusive.

Columns and labels:
[1] = qHTS assay to identify small molecule agonists of the sonic hedgehog signaling (Shh) pathway - cell viability counter screen (AID 1259366); note: nearly all actives have a fitted effect of over 50% in size; note: potency is the fitted concentration of half-maximal effect
Outline: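 Viability measured fluorometrically (CellTiter-Fluor, 1hr, 37C) in 3T3 Gli1-Luc reporter cells after 23hr compound exposure within a 24hr incubation at 37C/5% CO2.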

[2] = qHTS assay to identify small molecule antagonists of the sonic hedgehog signaling (Shh) pathway - cell viability counter screen (AID 1259367); note: nearly all actives have a fitted effect of over 55% in size; note: potency is the fitted concentration of half-maximal effect
Outline: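 Fluorescence read-out (CellTiter-Fluor, 1 hr at 37C) taken after 23 hr compound treatment of 3T3 Gli1-Luc cells stimulated with conditioned medium. Cells were seeded at 2,000 per well and pre-incubated 4 hr.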

[3] = qHTS assay to identify small molecule antagonists of the sonic hedgehog signaling (Shh) pathway (AID 1259369; calls by dose curve; note: nearly all actives have a fitted effect of over 45% in size; note: potency is the fitted concentration of half-maximal effect; for activity change, negative = inhibition: % is set by controls: 0 for no effect and ±100 for the full control effect)
Outline: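 Read-out is luminescence from a firefly luciferase gene controlled by the Gli1 response element, in 3T3Gli1-Luc cells pre-incubated 4hr then exposed to compounds and conditioned medium for 24hr.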

[4] = molecular target: Estrogen receptor beta (Homo sapiens) (UniProt Q92731); experiment: qHTS assay to identify small molecule agonists of the estrogen receptor beta (ER-beta) signaling pathway (AID 1259377; active = well fitted activation curve with a large enough effect in the signal ratio in the repeat runs, not every such curve was filed as active; inconclusive = weak or mixed curves, or effect the other way; the % refers to the signal ratio; note: potency is the fitted concentration of half-maximal effect; for activation: % is set by controls: 0 for no effect and ±100 for the full control effect); conditions: ER-beta-UAS-bla HEK293T, beta-lactamase FRET ratio, 16 h; activation: at 92.4 µM (top of the series) unless noted
Sequence of UniProt Q92731 (Q92731 whole entry, looked up): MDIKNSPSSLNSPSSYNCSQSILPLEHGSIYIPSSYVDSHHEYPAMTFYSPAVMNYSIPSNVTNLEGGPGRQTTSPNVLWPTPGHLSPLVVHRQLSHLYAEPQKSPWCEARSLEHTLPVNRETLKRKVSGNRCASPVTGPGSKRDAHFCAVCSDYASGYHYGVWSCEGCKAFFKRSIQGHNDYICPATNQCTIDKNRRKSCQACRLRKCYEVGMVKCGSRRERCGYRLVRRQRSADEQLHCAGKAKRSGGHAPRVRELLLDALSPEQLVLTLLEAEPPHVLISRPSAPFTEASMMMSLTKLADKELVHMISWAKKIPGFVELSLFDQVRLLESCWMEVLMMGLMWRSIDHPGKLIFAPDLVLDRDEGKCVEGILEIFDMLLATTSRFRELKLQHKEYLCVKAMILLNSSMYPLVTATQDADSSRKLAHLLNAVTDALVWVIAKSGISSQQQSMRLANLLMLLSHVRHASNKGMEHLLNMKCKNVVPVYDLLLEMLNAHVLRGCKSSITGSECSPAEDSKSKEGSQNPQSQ
Outline: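 A UAS-controlled beta-lactamase reporter in ER-beta-UAS-bla HEK293T cells reports receptor activation. Compounds act for 16 hr at 37C in 2% charcoal-stripped serum, and a FRET substrate is read by fluorescence after 2 hours.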

[5] = molecular target: Estrogen receptor beta (Homo sapiens) (UniProt Q92731); experiment: qHTS assay to identify small molecule antagonists of the estrogen receptor beta (ER-beta) signaling pathway (AID 1259378; active = well fitted inhibition curve with a large enough effect in the signal ratio in the repeat runs, not every such curve was filed as active; inconclusive = weak or mixed curves, or effect the other way; inactive = no such curve, though single readings can be large or run the other way; the % refers to the signal ratio; note: potency is the fitted concentration of half-maximal effect; for activity, negative = inhibition: % is set by controls: 0 for no effect and ±100 for the full control effect); conditions: ER-beta-UAS-bla HEK293T, beta-lactamase FRET ratio, 16 h; activity, negative = inhibition: at 92.4 µM (top of the series) unless noted
Outline: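 ER-beta-UAS-bla HEK293T cells in 2% charcoal-stripped FBS medium treated with compound plus 1nM final 17-beta-estradiol for 16 hr at 37C. Beta-lactamase reporter read by FRET substrate fluorescence after 2 hours at room temperature.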

[6] = qHTS assay to identify small molecule agonists of the estrogen receptor beta (ER-beta) signaling pathway - cell viability counter screen (AID 1259380); note: nearly all actives have a fitted effect of over 30% in size; note: potency is the fitted concentration of half-maximal effect
Outline: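 Compounds dissolved in DMSO were pin-transferred onto ER-beta-UAS-bla HEK293T cells that had settled 6 hr, and exposure ran 16 hr at 37C. Following the reporter read, CellTiter-Glo luminescence after 30 min at room temperature indicated cytotoxicity.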

[7] = qHTS assay to identify small molecule antagonists of the estrogen receptor beta (ER-beta) signaling pathway - cell viability counter screen (AID 1259382); note: potency is the fitted concentration of half-maximal effect; nearly all actives have a fitted effect of over 55% in size
Outline: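 CellTiter-Glo ATP luminescence measured after the LiveBLAzer read in the same wells; ER-beta-UAS-bla HEK293T cells, 16 hr compound treatment with 1nM 17-beta-estradiol agonist at 37C, 5% CO2.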

[8] = qHTS assay to identify small molecule agonists of the estrogen receptor alpha (ER-alpha) signaling pathway in the presence of an antagonist - cell viability counter screen (AID 1259386);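 note: cells exposed to compounds for 22 h at 37 °C before the viability read; nearly all actives have a fitted effect of over 30% in size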; note: potency is the fitted concentration of half-maximal effect
Outline: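 Using estrogen-depleted VM7Luc4E2 cells, the 15-concentration compound series was applied together with 10.0nM ICI-182,780 and incubated 22hr at 37C/5% CO2. Cell viability was then scored by CellTiter-Fluor.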

[9] = molecular target: Thyrotropin receptor (Homo sapiens) (UniProt P16473); experiment: qHTS assay to identify small molecule antagonists of the thyroid stimulating hormone receptor (TSHR) signaling pathway (AID 1259385; calls by dose curve; note: nearly all actives have a fitted effect of over 20% in size; note: potency is the fitted concentration of half-maximal effect); conditions: TSHR-HEK293 cAMP HTRF, TSH-stimulated antagonist mode; activity change, negative = inhibition: at 92.4 µM (top of the series) unless noted
Sequence of UniProt P16473 (P16473 whole entry, looked up): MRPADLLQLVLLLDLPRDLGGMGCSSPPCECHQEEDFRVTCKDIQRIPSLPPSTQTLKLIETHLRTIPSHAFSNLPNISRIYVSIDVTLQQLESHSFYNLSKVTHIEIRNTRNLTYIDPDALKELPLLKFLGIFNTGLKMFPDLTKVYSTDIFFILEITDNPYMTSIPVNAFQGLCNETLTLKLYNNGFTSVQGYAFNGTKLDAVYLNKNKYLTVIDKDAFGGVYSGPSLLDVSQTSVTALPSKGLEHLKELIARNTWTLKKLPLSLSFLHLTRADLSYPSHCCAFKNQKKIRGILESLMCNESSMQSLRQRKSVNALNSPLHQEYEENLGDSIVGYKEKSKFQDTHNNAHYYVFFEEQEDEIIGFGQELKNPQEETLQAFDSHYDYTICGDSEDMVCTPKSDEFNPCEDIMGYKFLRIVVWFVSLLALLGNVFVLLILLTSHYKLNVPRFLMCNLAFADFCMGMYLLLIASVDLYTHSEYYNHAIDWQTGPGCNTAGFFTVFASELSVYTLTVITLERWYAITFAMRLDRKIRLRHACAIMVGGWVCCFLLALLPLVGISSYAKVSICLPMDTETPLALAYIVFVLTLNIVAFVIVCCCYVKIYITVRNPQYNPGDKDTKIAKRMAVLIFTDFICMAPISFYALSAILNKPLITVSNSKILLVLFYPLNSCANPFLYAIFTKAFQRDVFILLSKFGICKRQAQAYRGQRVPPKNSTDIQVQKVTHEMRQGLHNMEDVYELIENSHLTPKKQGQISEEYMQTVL
Outline: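 TSHR-HEK293 cells (800/well) plated 18 h, then compounds with Ro20-1724 and TSH at 1.5 ng/mL final, 30 min at room temperature. cAMP quantified by HTRF (cAMP-d2/anti-cAMP-cryptate, 1 h); 15 concentrations in triplicate.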

[10] = qHTS assay to identify small molecule agonists of the androgen receptor (AR) signaling pathway in the presence of an antagonist - cell viability counter screen (AID 1259379); note: nearly all actives have a fitted effect of over 25% in size; note: potency is the fitted concentration of half-maximal effect
Outline: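 Each compound was tested at 15 concentrations on MDA-kb2 cells in the presence of 3.0uM nilutamide. Viability was measured by CellTiter-Fluor fluorescence after a 16 hr incubation at 37C in a CO2-free atmosphere.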

[11] = qHTS assay to identify small molecule agonists or antagonists of the thyroid stimulating hormone receptor (TSHR) signaling pathway - wild type cell line counter screen (AID 1259384; calls by dose curve; note: % is set by controls: 0 for no effect and ±100 for the full control effect); conditions: HEK293 wild type, cAMP HTRF counter-screen; cAMP activity change: at 92.4 µM (top of the series), stronger effect = higher value unless noted
Outline: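 Wild-type Hek293 cells, 800/well, 18 h at 37C, then compound with Ro20-1724 for 30 min RT. cAMP by HTRF (cAMP-d2/anti-cAMP cryptate), 1 h RT, fluorescence read. 15 concentrations, triplicates.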
Tags give direction and shape of the fitted curve or compound fluorescence and quenching.

## CC(=O)OC/C=C(C)/C=C/C=C(C)/C=C/C1=C(C)CCCC1(C)C
[1]
  Potency: inconclusive: 54.5 µM [cytotoxic, partial curve]
[2]
  Potency: inconclusive: 47.4 µM [cytotoxic, partial curve] and inconclusive: 48.6 µM [cytotoxic, partial curve]
[3]
  Potency: inconclusive: 9.45 µM [inhibitor] and active: 24.3 µM and inconclusive: 15 µM [inhibitor, partial curve]
[4]
  Potency: inconclusive: 37.6 µM [rising, partial curve]
[5]
  Potency: inconclusive: 59.6 µM and active: 54.5 µM
  activity, negative = inhibition: inconclusive: -33.7% [at 42.5 µM]
[6]
  Potency: inconclusive: 37.6 µM [cytotoxic, partial curve] and inconclusive: 61.1 µM [cytotoxic, partial curve] and inactive
[7]
  Potency: inconclusive: 47.4 µM [cytotoxic, partial curve, poor fit] and inconclusive: 61.1 µM [cytotoxic, partial curve, poor fit]
[8]
  Potency: inconclusive: 66.9 µM [cytotoxic, partial curve, poor fit]

## CCCCCCCC/C=C\CCCCCCCCOCCO
[1]
  Potency: inconclusive: 70.8 µM [cytotoxic, single point]
[4]
  Potency: inconclusive: 56.2 µM [falling, single point]
[5]
  Potency: inconclusive: 89.1 µM [cytotoxic, single point]
[6]
  Potency: active: 28.2 µM
[7]
  Potency: active: 28.2 µM
[9]
  Potency: active: 89.1 µM

## O=C(O)CS
[1]
  Potency: active: 30.9 µM
[2]
  Potency: inconclusive: 24.5 µM [cytotoxic, full curve]
[3]
  Potency: inconclusive: 77 µM [inhibitor, partial curve, poor fit]
[6]
  Potency: inconclusive: 24.5 µM [rising, partial curve, poor fit]

## O=c1n(CCO)c(=O)n(CCO)c(=O)n1CCO
[1]
  Potency: inconclusive: 68.6 µM [cytotoxic, single point]
[2]
  Potency: active: 54.5 µM
[5]
  Potency: inconclusive: 54.5 µM [activator, partial curve, poor fit]
[6]
  Potency: inconclusive: 69.4 µM [rising, single point]

## Clc1ccc2n[nH]nc2c1
[1]
  Potency: inactive
[5]
  Potency: inconclusive: 13.7 µM [cytotoxic, full curve]
[10]
  Potency: inactive

## CC(Cc1ccc(O)c(O)c1)C(C)Cc1ccc(O)c(O)c1 (centres undefined)
[1]
  Potency: inconclusive: 38.6 µM [cytotoxic, partial curve]
[2]
  Potency: inconclusive: 48.6 µM [cytotoxic, partial curve]
[3]
  Potency: active: 13.7 µM
[5]
  Potency: inconclusive: 30.6 µM
[10]
  Potency: inconclusive: 61.1 µM [cytotoxic]
[6]
  Potency: inconclusive: 48.6 µM [cytotoxic, partial curve]
[7]
  Potency: inconclusive: 43.3 µM [cytotoxic, partial curve]

## CCCCCCCCCCCCN1CCCC1=O
[1]
  Potency: inconclusive: 68.6 µM [cytotoxic, single point]
[2]
  Potency: inactive
[4]
  Potency: inconclusive: 77 µM [falling, single point]
[5]
  Potency: active: 48.6 µM
[6]
  Potency: active: 48.6 µM
[9]
  Potency: inconclusive: 68.6 µM [falling, single point]

## Cc1cc(O)c(Cl)c(C)c1Cl
[1]
  Potency: inconclusive: 54.5 µM [cytotoxic, single point]
[4]
  Potency: inactive
[6]
  Potency: inconclusive: 17.2 µM [rising, partial curve, poor fit]

## Cc1ccc(O)c(C(C)(C)C)c1
[1]
  Potency: inconclusive: 68.5 µM [cytotoxic, partial curve, poor fit]
[2]
  Potency: inconclusive: 61 µM [cytotoxic, single point]
[3]
  Potency: inconclusive: 68.5 µM [inhibitor, single point] and inconclusive: 43.3 µM [inhibitor, partial curve, poor fit]
[6]
  Potency: inconclusive: 68.5 µM [cytotoxic, single point] and inconclusive: 68.6 µM [cytotoxic, single point]

## c1ccc(Nc2cccc3ccccc23)cc1
[1]
  Potency: inconclusive: 61.9 µM [cytotoxic]
[3]
  Potency: inconclusive: 49.2 µM [inhibitor]
[5]
  Potency: active: 31 µM and active: 54.5 µM
[6]
  Potency: inconclusive: 61.9 µM [cytotoxic, single point]
[7]
  Potency: inconclusive: 69.5 µM [cytotoxic] and inconclusive: 68.6 µM [cytotoxic, single point]

## CC[C@H](c1ccc(O)cc1)[C@@H](CC)c1ccc(O)cc1
[1]
  Potency: active: 54.5 µM
[3]
  Potency: inconclusive: 29.8 µM [inhibitor, single point]
[4]
  Potency: active: 0.0011 µM
[5]
  Potency: inconclusive: 0.0007 µM [activator]
  activity, negative = inhibition: inconclusive: -72.7%
[10]
  Potency: inconclusive: 61.1 µM [cytotoxic, partial curve, poor fit]
[7]
  Potency: inconclusive: 61.1 µM [cytotoxic]

## CC(C)Cc1ccccc1
[3]
  Potency: inconclusive: 190 nM [inhibitor, single point] and inactive

## O=C1NC(=O)c2cc([N+](=O)[O-])ccc21
[3]
  Potency: inconclusive: 77.6 µM [inhibitor, single point]
[5]
  Potency: inactive
[8]
  Potency: inactive

## CC(C)(c1ccccc1)c1ccccc1
[3]
  Potency: inconclusive: 11.3 µM [inhibitor, full curve, poor fit]

## CCCCOCCOCCOCCO
[3]
  Potency: inconclusive: 67.8 µM [inhibitor, partial curve, poor fit]
[4]
  Potency: inconclusive: 67.8 µM
[5]
  Potency: inconclusive: 76.1 µM [rising, partial curve, poor fit]

## CCCCCCCC/C=C\CCCCCCCC(=O)N(CCO)CCO
[3]
  Potency: active: 15.3 µM
[10]
  Potency: inconclusive: 60.9 µM [cytotoxic, partial curve]
[6]
  Potency: inconclusive: 30.5 µM [cytotoxic, partial curve]

## c1ccc2c(c1)-c1cccc3c1c-2cc1ccccc13
[3]
  Potency: active: 0.545 µM
[4]
  Potency: inconclusive: 53.2 µM [fluorescent, partial curve] and inconclusive: 48.6 µM [fluorescent, partial curve]
[5]
  Potency: inconclusive: 23.8 µM [fluorescent, full curve] and inconclusive: 54.5 µM [fluorescent, partial curve]
[6]
  Potency: inconclusive: 59.7 µM [cytotoxic, partial curve] and inactive

## ClC1=C(Cl)C(Cl)(Cl)C(Cl)=C1Cl
[3]
  Potency: inconclusive: 61.1 µM [inhibitor]
[10]
  Potency: inconclusive: 54.8 µM [cytotoxic, partial curve]

## Oc1c(Br)cc(Br)c2cccnc12
[2]
  Potency: inconclusive: 3.76 µM [cytotoxic, full curve]
[5]
  Potency: inconclusive: 15 µM [rising, partial curve]
[7]
  Potency: inconclusive: 11.9 µM [cytotoxic, full curve]
[9]
  Potency: inactive

## Cn1cc(C(=O)[C@@H]2CCc3nc[nH]c3C2)c2ccccc21
[2]
  Potency: inconclusive: 29.8 µM [cytotoxic, single point]
[6]
  Potency: inconclusive: 26.6 µM [cytotoxic, partial curve]

## CCCCC(CC)COC(=O)/C=C/c1ccc(OC)cc1 (centres undefined)
[3]
  Potency: inconclusive: 0.242 µM [inhibitor, single point]

## Oc1c(Cl)cc(Cl)c2cccnc12
[2]
  Potency: inconclusive: 1.5 µM [cytotoxic, full curve]
[3]
  Potency: inconclusive: 0.75 µM [inhibitor, full curve]
[4]
  Potency: inconclusive: 4.22 µM [rising, full curve]
[5]
  Potency: inconclusive: 29.8 µM [rising, single point]
[6]
  Potency: active: 4.73 µM
[7]
  Potency: active: 11.9 µM

## Oc1ccc(O)cc1
[2]
  Potency: inconclusive: 18.8 µM [cytotoxic, partial curve]
[4]
  Potency: inconclusive: 19.2 µM [fluorescent, full curve] and inconclusive: 61.1 µM and inconclusive: 26.6 µM [fluorescent, partial curve, poor fit]
[5]
  Potency: inconclusive: 54.2 µM [rising, partial curve]
  activity, negative = inhibition: inconclusive: -30.5%
[6]
  Potency: inconclusive: 43.3 µM [rising, single point]
[7]
  Potency: inconclusive: 68.2 µM [cytotoxic, partial curve, poor fit]
[11]
  cAMP activity change: inconclusive: -4.21%
[9]
  Potency: inconclusive: 77 µM
  activity change, negative = inhibition: inconclusive: 5.38%
[8]
  Potency: inconclusive: 68.2 µM [cytotoxic, single point] and inconclusive: 68.6 µM [cytotoxic, single point]

## CC(=O)O[C@]1(C(C)=O)CC[C@H]2[C@@H]3C[C@H](C)C4=CC(=O)CC[C@]4(C)[C@H]3CC[C@@]21C
[3]
  Potency: inconclusive: 18.8 µM [inhibitor, partial curve]
[10]
  Potency: inconclusive: 68.5 µM [cytotoxic]
[6]
  Potency: inactive
[9]
  Potency: inconclusive: 16.8 µM [falling, partial curve]

## Cc1cc(O)c(C(C)(C)C)cc1Sc1cc(C(C)(C)C)c(O)cc1C
[3]
  Potency: active: 9.67 µM
[4]
  Potency: inconclusive: 30.6 µM [cytotoxic]
[5]
  Potency: inconclusive: 30.6 µM [cytotoxic, full curve]
[7]
  Potency: active: 24.3 µM
[9]
  Potency: inconclusive: 68.5 µM [falling, single point]

## CCCCOCCOCCOCc1cc2c(cc1CCC)OCO2
[2]
  Potency: inconclusive: 69.4 µM [cytotoxic, single point]
[3]
  Potency: active: 1.39 µM and active: 2.66 µM
[4]
  Potency: inconclusive: 31 µM [rising, partial curve]
[5]
  Potency: inconclusive: 43.8 µM [inhibitor, partial curve]
[6]
  Potency: inconclusive: 1.1 µM [cytotoxic, single point]
[9]
  Potency: inconclusive: 27.6 µM and active: 23.7 µM

## CCc1cc(Cc2cc(CC)c(N)c(CC)c2)cc(CC)c1N
[2]
  Potency: inactive
[5]
  Potency: inconclusive: 30.6 µM
[10]
  Potency: inconclusive: 48.6 µM [cytotoxic, partial curve]
[8]
  Potency: inconclusive: 54.5 µM [cytotoxic, partial curve, poor fit]

## Brc1cc(Oc2cc(Br)c(Br)c(Br)c2Br)c(Br)c(Br)c1Br
[2]
  Potency: inconclusive: 77.3 µM [cytotoxic, single point]
[3]
  Potency: inconclusive: 48.8 µM [inhibitor, partial curve, poor fit] and inactive
